# From US20190375786A1, “STABLE PEPTIDES AND METHODS OF USE THEREOF” (Fred Hutchinson Cancer Research Center, priority 2016, published 2019)
# Not every detail of the peptide structures is certain; ends, links or a residue may be inferred. Positions of bridges follow the written chain, without caps; N, C: chain ends. Residues, ends and D or L forms follow the SMILES beside them.
# Assays:
# [1] = Resistance to elevated temperature, HPLC; assay type: physicochemical; conditions: HPLC peak vs untreated peptide; for Resistance to Temperature (70° C.): 70° C. for one hour; for Resistance to Temperature (75° C.): 75° C. for one hour; for Resistance to Temperature (100° C.): 100° C. for one hour
# Outline: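 Peptides were incubated at room temperature, 70° C or 100° C for one hour in ddH2O; another protocol used 70° C, 75° C or 100° C for one hour in 0.5 mM PBS, then pelleting and analysis of the supernatant. Remaining peptide was measured by C-18 RP-HPLC, 5–45% acetonitrile/0.1% TFA over 10 min.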
# [2] = Resistance to reduction by DTT, RP-HPLC; assay type: physicochemical; conditions: 10 mM DTT in PBS, room temperature, 30 minutes; HPLC peak vs untreated peptide
# Outline: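 Peptide (12.5 μg from a 2 mg/ml stock, or 0.015 mM final in PBS) was held 30 min at room temperature with or without 10 mM DTT. Reduced and non-reduced forms were compared by C-18 RP-HPLC using a 5–45% acetonitrile/0.1% TFA gradient over 10 min, with detection at 214 and 280 nm.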
Compound,Resistance to Temperature (70° C.) [1],Resistance to Temperature (75° C.) [1],Resistance to Temperature (100° C.) [1],Resistance to DTT Reduction (10 mM) [2]
"CC[C@H](C)[C@H](NC(=O)[C@@H](NC(=O)[C@@H](NC(=O)[C@H](CO)NC(=O)CN)C(C)C)C(C)C)C(=O)NCC(=O)N[C@@H](CCC(N)=O)C(=O)N[C@@H](CCCNC(=N)N)C(=O)N[C@H]1CSSC[C@@H]2NC(=O)[C@H](CCCCN)NC(=O)CNC(=O)[C@H]([C@@H](C)O)NC(=O)[C@H](C)NC(=O)[C@H](CCCCN)NC(=O)CNC(=O)[C@H](C(C)C)NC(=O)[C@H](CC(C)C)NC(=O)[C@H](CCCCN)NC(=O)[C@H](CCCCN)NC(=O)[C@@H]3CSSC[C@@H](C(=O)O)NC(=O)[C@H](CC(=O)O)NC(=O)[C@H](CSSC[C@H](NC(=O)[C@H](CC(=O)O)NC(=O)[C@@H]4CCCN4C(=O)[C@H](CO)NC(=O)[C@H](CCCNC(=N)N)NC(=O)[C@H](Cc4ccc(O)cc4)NC1=O)C(=O)N[C@@H](Cc1ccc(O)cc1)C(=O)N[C@@H](CO)C(=O)N[C@@H](C)C(=O)N3)NC(=O)[C@H](CCCNC(=N)N)NC(=O)CNC(=O)[C@H](CC(N)=O)NC(=O)[C@H]([C@@H](C)O)NC2=O [compound 36] (H-GSVVIGQRCYRSPDCYSACKKLVGKATGKCTNGRCDC-OH; disulfide 9-30, 15-35, 19-37)",High (A peptide classified as high indicates that the majority (at least 75%) of the HPLC peak of the treated peptide is still present as compared to the HPLC peak of the untreated peptide),High (A peptide classified as high indicates that the majority (at least 75%) of the HPLC peak of the treated peptide is still present as compared to the HPLC peak of the untreated peptide),Low (A peptide classified as low indicates that the majority (over 75%) of the HPLC peak of the treated peptide disappeared as compared to the HPLC peak of the untreated peptide),Low (A peptide classified as low indicates that the majority (over 75%) of the HPLC peak of the treated peptide disappeared as compared to the HPLC peak of the untreated peptide)
"CC[C@H](C)[C@@H]1NC(=O)[C@H](CCCNC(=N)N)NC(=O)[C@H]([C@@H](C)CC)NC(=O)[C@@H]2CSSC[C@@H](C(=O)N[C@@H](Cc3ccc(O)cc3)C(=O)N3CCC[C@H]3C(=O)O)NC(=O)[C@H](Cc3ccc(O)cc3)NC(=O)[C@@H]3CSSC[C@H](NC(=O)[C@H](CCC(=O)O)NC(=O)[C@H](CO)NC(=O)[C@H](CO)NC(=O)[C@H](CC(N)=O)NC(=O)[C@H](CC(N)=O)NC(=O)[C@@H](NC(=O)[C@H](CCCNC(=N)N)NC(=O)[C@H](CC(N)=O)NC(=O)[C@H](CO)NC(=O)[C@H](CC(C)C)NC(=O)[C@@H](NC(=O)[C@H](CCCCN)NC(=O)[C@H](CCC(N)=O)NC(=O)[C@H](CO)NC(=O)CN)[C@@H](C)CC)CSSC[C@H](NC(=O)[C@H](CCCCN)NC(=O)[C@H](C)NC(=O)[C@H](C)NC(=O)[C@H](CCCNC(=N)N)NC(=O)[C@H]([C@@H](C)O)NC(=O)CNC(=O)[C@H](Cc4ccccc4)NC1=O)C(=O)N[C@@H]([C@@H](C)CC)C(=O)N[C@@H](CC(N)=O)C(=O)N[C@@H](CCCNC(=N)N)C(=O)N[C@@H](CCCCN)C(=O)N3)C(=O)N[C@@H]([C@@H](C)CC)C(=O)N1CCC[C@H]1C(=O)N[C@@H](Cc1c[nH]cn1)C(=O)N2 [compound 6] (H-GSQKILSNRCNNSSECIPHCIRIFGTRAAKCINRKCYCYP-OH; disulfide 10-31, 16-36, 20-38)",–,High (A peptide classified as high indicates that the majority (at least 75%) of the HPLC peak of the treated peptide is still present as compared to the HPLC peak of the untreated peptide),High (A peptide classified as high indicates that the majority (at least 75%) of the HPLC peak of the treated peptide is still present as compared to the HPLC peak of the untreated peptide),High (A peptide classified as high indicates that the majority (at least 75%) of the HPLC peak of the treated peptide is still present as compared to the HPLC peak of the untreated peptide)
"CC[C@H](C)[C@@H]1NC(=O)[C@H](C)NC(=O)[C@H](CCC(=O)O)NC(=O)[C@H](CCCCN)NC(=O)[C@@H]2CSSC[C@@H](C(=O)N[C@@H](Cc3ccc(O)cc3)C(=O)N3CCC[C@H]3C(=O)O)NC(=O)[C@H](CCCCN)NC(=O)[C@@H]3CSSC[C@H](NC(=O)[C@H](CCC(=O)O)NC(=O)[C@@H]4CCCN4C(=O)[C@H](CO)NC(=O)CNC(=O)[C@H](CCCNC(=N)N)NC(=O)[C@@H](NC(=O)[C@H](CCCCN)NC(=O)[C@@H](NC(=O)[C@H](CC(N)=O)NC(=O)[C@@H](NC(=O)[C@H](Cc4ccccc4)NC(=O)[C@@H](NC(=O)[C@H](CO)NC(=O)CN)C(C)C)[C@@H](C)CC)C(C)C)CSSC[C@H](NC(=O)[C@H](CCCCN)NC(=O)CNC(=O)[C@H](C)NC(=O)[C@H](CO)NC(=O)[C@H](CCCCN)NC(=O)CNC1=O)C(=O)N[C@@H](CCSC)C(=O)N[C@@H](CC(N)=O)C(=O)NCC(=O)N[C@@H](CCCCN)C(=O)N3)C(=O)N[C@@H](CC(C)C)C(=O)N1CCC[C@H]1C(=O)N[C@@H](CCCCN)C(=O)N2 [compound 37] (H-GSVFINVKCRGSPECLPKCKEAIGKSAGKCMNGKCKCYP-OH; disulfide 9-30, 15-35, 19-37)",High (A peptide classified as high indicates that the majority (at least 75%) of the HPLC peak of the treated peptide is still present as compared to the HPLC peak of the untreated peptide),High (A peptide classified as high indicates that the majority (at least 75%) of the HPLC peak of the treated peptide is still present as compared to the HPLC peak of the untreated peptide),High (A peptide classified as high indicates that the majority (at least 75%) of the HPLC peak of the treated peptide is still present as compared to the HPLC peak of the untreated peptide),Low (A peptide classified as low indicates that the majority (over 75%) of the HPLC peak of the treated peptide disappeared as compared to the HPLC peak of the untreated peptide)
"CC[C@H](C)[C@@H]1NC(=O)[C@@H]2CSSC[C@H](NC(=O)[C@H](CCCCN)NC(=O)[C@@H](NC(=O)[C@H](CC(N)=O)NC(=O)[C@@H](NC(=O)[C@@H]3CCCN3C(=O)[C@@H](NC(=O)CNC(=O)[C@H](CO)NC(=O)CN)C(C)C)[C@@H](C)CC)C(C)C)C(=O)N[C@@H](CCCNC(=N)N)C(=O)NCC(=O)N[C@@H](CO)C(=O)N[C@@H](CCCNC(=N)N)C(=O)N[C@@H](CC(=O)O)C(=O)N[C@H]3CSSC[C@H](NC(=O)[C@H](CCCCN)NC(=O)[C@H](CO)NC(=O)[C@H](CC(N)=O)NC1=O)C(=O)N[C@@H](Cc1c[nH]cn1)C(=O)N[C@H](C(=O)N[C@H](C(=O)N1CCC[C@H]1C(=O)O)[C@@H](C)O)CSSC[C@H](NC(=O)[C@@H]1CCCN1C(=O)[C@H](CC(=O)O)NC(=O)[C@H](CC(C)C)NC3=O)C(=O)N[C@@H](CCCCN)C(=O)N[C@@H](CCCCN)C(=O)N[C@@H](C)C(=O)NCC(=O)N[C@@H](CCSC)C(=O)N[C@@H](CCCNC(=N)N)C(=O)N[C@@H](Cc1ccccc1)C(=O)NCC(=O)N[C@@H](CCCCN)C(=O)N2 [compound 27] (H-GSGVPINVKCRGSRDCLDPCKKAGMRFGKCINSKCHCTP-OH; disulfide 10-30, 16-35, 20-37)",–,High (A peptide classified as high indicates that the majority (at least 75%) of the HPLC peak of the treated peptide is still present as compared to the HPLC peak of the untreated peptide),High (A peptide classified as high indicates that the majority (at least 75%) of the HPLC peak of the treated peptide is still present as compared to the HPLC peak of the untreated peptide),High (A peptide classified as high indicates that the majority (at least 75%) of the HPLC peak of the treated peptide is still present as compared to the HPLC peak of the untreated peptide)
"CC[C@H](C)[C@H](NC(=O)CNC(=O)[C@H](CO)NC(=O)CN)C(=O)N[C@H](C(=O)N[C@H]1CSSC[C@@H]2NC(=O)[C@H]([C@@H](C)CC)NC(=O)[C@H](CC(N)=O)NC(=O)[C@H](C(C)C)NC(=O)[C@H](CCCCN)NC(=O)[C@H](CCCCN)NC(=O)CNC(=O)[C@H](CCC(N)=O)NC(=O)[C@H](CCSC)NC(=O)CNC(=O)[C@@H]3CSSC[C@@H](C(=O)N[C@@H](CCCCN)C(=O)N[C@@H](CCCCN)C(=O)NCC(=O)O)NC(=O)[C@H](CCCCN)NC(=O)[C@H](CSSC[C@H](NC(=O)[C@H](C(C)C)NC(=O)[C@H](CCCCN)NC1=O)C(=O)N[C@@H](CCCCN)C(=O)N[C@@H]([C@@H](C)CC)C(=O)N[C@@H]([C@@H](C)CC)C(=O)N3)NC(=O)[C@H](CCCCN)NC(=O)[C@H]([C@@H](C)CC)NC(=O)[C@@H]1CCCN1C(=O)[C@H](C)NC(=O)[C@H](CCCCN)NC2=O)C(C)C [compound 55] (H-GSGIVCKVCKIICGMQGKKVNICKAPIKCKCKKG-OH; disulfide 6-23, 9-29, 13-31)",–,High (A peptide classified as high indicates that the majority (at least 75%) of the HPLC peak of the treated peptide is still present as compared to the HPLC peak of the untreated peptide),Low (A peptide classified as low indicates that the majority (over 75%) of the HPLC peak of the treated peptide disappeared as compared to the HPLC peak of the untreated peptide),Low (A peptide classified as low indicates that the majority (over 75%) of the HPLC peak of the treated peptide disappeared as compared to the HPLC peak of the untreated peptide)
